Publication PMC4336329 (PLoS ONE, 2015)
Screen size: about 310,000 compounds; about 14,000 (4.5%) showed an effect of 50% or more. Effects have a minus sign here. The list shows a part of the results.

Molecular target: human ether-à-go-go-related gene (hERG) potassium channel (human, UniProt Q12809)
Experiment: primary screen, population patch clamp on CHO cells stably expressing hERG
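Further: peak tail current of the secondary pulse compared with the same well before compound.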

human ether-à-go-go-related gene (hERG) potassium channel, sequence (Q12809 whole entry, looked up): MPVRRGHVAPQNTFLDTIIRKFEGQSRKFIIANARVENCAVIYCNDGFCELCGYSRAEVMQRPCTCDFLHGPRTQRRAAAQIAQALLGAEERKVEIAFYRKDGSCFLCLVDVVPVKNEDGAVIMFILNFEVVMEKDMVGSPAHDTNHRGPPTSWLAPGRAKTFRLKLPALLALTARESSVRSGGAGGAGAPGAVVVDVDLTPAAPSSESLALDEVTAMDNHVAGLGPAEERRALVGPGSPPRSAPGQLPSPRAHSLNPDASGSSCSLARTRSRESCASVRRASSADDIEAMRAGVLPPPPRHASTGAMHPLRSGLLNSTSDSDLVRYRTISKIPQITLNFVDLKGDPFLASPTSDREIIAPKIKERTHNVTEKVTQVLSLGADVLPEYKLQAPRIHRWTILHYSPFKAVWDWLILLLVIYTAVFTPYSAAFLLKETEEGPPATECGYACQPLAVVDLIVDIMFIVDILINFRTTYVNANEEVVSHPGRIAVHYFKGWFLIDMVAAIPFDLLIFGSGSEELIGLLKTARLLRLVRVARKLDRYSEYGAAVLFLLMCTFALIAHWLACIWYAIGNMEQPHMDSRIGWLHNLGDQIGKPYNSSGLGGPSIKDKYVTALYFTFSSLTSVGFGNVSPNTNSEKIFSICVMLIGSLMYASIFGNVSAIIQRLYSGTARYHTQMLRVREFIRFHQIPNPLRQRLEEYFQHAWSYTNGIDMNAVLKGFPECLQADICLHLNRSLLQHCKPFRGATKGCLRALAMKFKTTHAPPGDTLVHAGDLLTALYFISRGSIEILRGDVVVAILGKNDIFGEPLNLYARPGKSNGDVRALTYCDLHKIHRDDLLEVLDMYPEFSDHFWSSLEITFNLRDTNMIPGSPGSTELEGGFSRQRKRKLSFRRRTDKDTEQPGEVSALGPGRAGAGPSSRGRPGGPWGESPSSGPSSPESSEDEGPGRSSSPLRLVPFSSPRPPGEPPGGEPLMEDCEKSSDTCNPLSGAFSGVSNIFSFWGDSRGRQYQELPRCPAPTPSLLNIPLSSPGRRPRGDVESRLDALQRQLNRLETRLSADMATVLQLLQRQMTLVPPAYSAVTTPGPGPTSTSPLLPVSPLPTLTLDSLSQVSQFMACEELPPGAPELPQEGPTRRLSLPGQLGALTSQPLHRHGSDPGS

SMILES	hERG current change (%, negative = inhibition) at 10uM
CC(C)NC(=O)CCCC(=O)NC(C)C	19.9%
c1ccc(OCCOc2ncnc3ccccc23)cc1	7.39%
COc1cccc(CNC(=O)CSC(=S)N2CCCC2)c1	2.79%
CCCCNC(=O)COC(=O)c1cc(S(=O)(=O)N2CCCCCC2)ccc1OC	-39.5%
O=C(CN(Cc1ccccc1Cl)C(=O)c1csnn1)NCCc1ccccc1	1.49%
Cc1cc(=O)[nH]c(N/N=C/c2sccc2C)n1	-1.84%
O=C(OCN1C(=O)c2ccccc2C1=O)c1ccc(Cl)nc1	-0.701%
O=C(CSc1nnc(CCCN2C(=O)c3cccc4cccc(c34)C2=O)n1-c1ccccc1)NCCCN1CCOCC1	-34.9%
Cc1ccc(S(=O)(=O)N2CCC(C(=O)OCC(=O)N(C)CC(=O)Nc3ccc(F)cc3)CC2)cc1C	-41.8%
COc1ccccc1N1C(=O)S/C(=C\c2ccc(C)s2)C1=O	22.2%
CC(C)CCNC(=O)C(=O)Nc1ccccc1	3.7%
COCCN1C(=O)C(=O)/C(=C(/O)c2ccc(S(=O)(=O)N3CCOCC3)cc2)C1c1ccc(OC)c(OC)c1 (centres unmarked)	8.15%
COc1ccc2c(C)c(CC(=O)N3C[C@H]4C[C@@H](C3)c3cccc(=O)n3C4)c(=O)oc2c1OC	-1.03%
S=c1[nH]cc(-c2ccccc2)[nH]1	15.8%
COc1ccc(-c2nc(C#N)c(NCc3ccco3)o2)cc1	11.6%
Cn1cccc1/C=C1/SC(=O)N(CC(=O)N2CCCC2)C1=O	16.1%
CC(=O)CSc1nnc(-c2ccco2)n1-c1ccccc1	-11.7%
CCOc1ccc2nc3c(cc2c1)CN(CCCO)C(=NCCOC)S3	1.71%
CN(C1CCCCC1)S(=O)(=O)c1ccc(C(=O)Nc2sc3c(c2C(N)=O)CC(C)(C)NC3(C)C)cc1	15.6%

SMILES	hERG current change (%, negative = inhibition) at 10uM
COc1cc(C)ccc1OCCOc1cc(C)ccc1Cl	8.79%
Cc1ccccc1NC(=S)NC(NC(=O)N(C)C)C(Cl)(Cl)Cl (centres unmarked)	8.39%
CCOc1ccc(Oc2ccc(C(F)(F)F)cc2NC(=O)C2=COCCO2)cc1	13.6%
COCCNC(=O)Cc1c(C)c2cc3c(cc2oc1=O)OC(C)(C)CC3	12.3%
CC(OC(=O)c1cccc(-n2cnnn2)c1)C(=O)NCc1ccccc1 (centres unmarked)	0.976%
C=CCSc1nc2c(C(=O)OCC)nnn2c2ccccc12	10.5%
C/C(=N/O)c1no[n+]([O-])c1/C(C)=N\O	-6.92%
Cc1occc1C(=O)N(C)CC1CCCN(CCc2ccccc2F)C1 (centres unmarked)	-51.1%
COc1ccccc1N1CCN(C(=O)c2ccc(CS(=O)(=O)c3ccccc3OC)o2)CC1	-7.39%
CCc1ccc(NC(=O)Cn2nnc(C(=O)NCCc3ccc(OC)c(OC)c3)c2N)cc1	11.6%
CCCc1nnc(NC(=O)c2ccc(N3C(=O)C4C5C=CC(C5)C4C3=O)cc2)s1 (centres unmarked)	5.65%
COc1ccc2ncc(OC(C)=O)cc2c1	17.4%
CCOC(=O)c1[nH]c(C)c(C(=O)OCC(=O)N(C)C2CCS(=O)(=O)C2)c1C (centres unmarked)	29%
Cn1nc(C(F)(F)F)c(-c2cccc(C(F)(F)F)c2)c1NC(=O)c1ccco1	-66.6%
CCCn1nnc(NC(=S)NC(=O)CC)n1	9.28%
COc1cc(C(=O)Nc2cc(C(F)(F)F)ccc2N2CCOCC2)ccc1O	-26.6%
CCCN(CC(=O)Nc1ccccc1OC)Cc1c(O)ccc2ccccc12	7.41%
O=C(NCc1nnc(SCC(=O)N2CCCC2)o1)c1ccccc1	20.8%
COc1cccc(CNC(=O)COC(=O)CNC(=O)c2ccc(-c3ccccc3)cc2)c1	8.82%

SMILES	hERG current change (%, negative = inhibition) at 10uM
CC(C)Cc1nnc(NC(=O)c2ccc(N3CCCC3=O)cc2)s1	2.3%
COP(=O)(OC)C(Nc1ccc(C)cc1)c1ccc([N+](=O)[O-])cc1 (centres unmarked)	-9.95%
Cc1cc(C)c(C(N)=O)c(SCC(=O)c2ccc(Cl)cc2)n1	-3.74%
COc1cc(Cl)c(C)cc1NC(=O)CSc1sc2c(O)cc(=O)[nH]c2c1C#N	11%
COc1cc(C(=O)NCC(=O)n2nc(C)cc2C)cc(OC)c1OC	9.83%
CS(=O)(=O)N1N=C(c2ccc3nccnc3c2)CC1c1ccccc1 (centres unmarked)	-7.62%
C=CCSC1=C(C#N)C(c2ccccc2OC)CC(=O)N1 (centres unmarked)	-2.19%
O=C(COC(=O)c1ccccc1SCC(=O)N1CCCC1)NC1CCS(=O)(=O)C1 (centres unmarked)	-5.66%
CCCc1[nH]nc2c1C(c1c(C)nn(-c3ccccc3)c1Cl)C(C#N)=C(N)O2 (centres unmarked)	-3.86%
Cc1ccc(C(=O)N2CCn3c(C)ccc3C2C)cc1 (centres unmarked)	-2.41%
COc1ccc(C(=O)CC(=O)C(=O)NCCc2cccc(C)c2)cc1	7.31%
Cc1cc(NC(=O)CSc2nc3ccccc3n2CC(C)C)no1	19.2%
O=C(Nc1ccccc1)c1cc2ccccc2o1	-7.55%
NC(=O)C1CC(=O)N(c2ccc(OCC(=O)NCc3ccccc3)cc2)C1 (centres unmarked)	16.6%
CCCc1ccc(-c2cc(C(=O)Nc3ccc([N+](=O)[O-])cn3)c3ccccc3n2)cc1	5.62%
CC(C)C(=O)NC(NC(=S)Nc1ccc(S(N)(=O)=O)cc1)C(Cl)(Cl)Cl (centres unmarked)	12.8%
Cc1ccc(-n2nnnc2SCc2nc3sc(C)c(C)c3c(=O)[nH]2)cc1	-11.7%
COc1cccc(/C=N/NC(=O)c2cc3c(OC)ccc(OC)c3[nH]2)c1O	31.1%
